These results are taken from the supplement of paper PMC10369915.

This is one part of the list. Rule as the data show it: active = 3.2 or more and inactive = the rest. The signal is at background level for most entries.
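Also: displayed peptides selected on beads carrying the immobilized SH2 domain, with library peptides lacking any tyrosine serving as negative controls.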

The target in one assay is SHP2 C-SH2 domain E139D. As to the kind of experiment: enrichment score (SH2-bound / input frequency) (ratio); bacterial display of known human phosphotyrosine sites (pTyr-Var adds point mutants) read by sequencing; higher = stronger binding; tyrosines were phosphorylated by kinases first. To be noted: peptide library: pTyr-Var.
In the case of NLFIEYPTGSG [IRF2BPL_Y423_K418N], the enrichment score is inactive: 1.
IYETDYYQKGG [INSR_Y1189_R1191Q]: the enrichment score is inactive: 1.06.
On the same count and under the same terms, under FNNPAYFVLEG [INPPL1_Y986_YF] stands inactive: 0.985; under SFPSTYRFERG [INPPL1_Y661_P659S_YF], inactive: 0.817; under FPCSVYMPDEW [INSR_Y1011_V1012M], inactive: 1.32.
Take EFNLMYHGTKE [IRF6_Y97_D98H]: the enrichment score is inactive: 0.875.
On the same count and under the same terms, the figure for KQRKEYMHRRQ [IQGAP2_Y710] is inactive: 0.312; for MTRDIYETDFF [INSR_Y1185_YF] it is inactive: 1; for VGTTAYMAPEA [IRAK4_Y354] it is inactive: 0.675.
Consider KLFFHYNPKLC [INSR_Y457], for which the enrichment score was inactive: 1.58.
On to KQRKEYMHRWQ [IQGAP2_Y710_R714W], for which the enrichment score was active: 4.42.
In the case of KLFFHYDPKLC [INSR_Y457_N458D], the enrichment score is inactive: 0.963.
As for DISEPYEVYRI [IRF8_Y107_K108E], the enrichment score is inactive: 0.436.
On the same count and under the same terms, under VGTTAYVAPEA [IRAK4_Y354_M355V] stands inactive: 0.722.
For the molecule EKFVPYFDLFM [IPO5_Y530_YF], the enrichment score is inactive: 1.67.
The same measure, in the same setting: under LLFRVYGLESL [INSR_Y94] stands inactive: 0.817; under IFETDYFQKGG [INSR_Y1189_R1191Q_YF], inactive: 1.12.
Same read-out and setting: the figure for SFVMVYEGNAR [INSR_Y1038_G1035V] is inactive: 1.35; for PLGPLYASSNP [INSR_Y992] it is inactive: 0.735.

In a further assay the target is SHP2 C-SH2 domain wild-type. Described as above. To be noted: peptide library: pTyr-Var.
For the molecule NLFIEYPTGSG [IRF2BPL_Y423_K418N], the enrichment score is inactive: 0.868.
Turning to IYETDYYQKGG [INSR_Y1189_R1191Q], the enrichment score is inactive: 0.84.
Same read-out and setting: under FNNPAYFVLEG [INPPL1_Y986_YF] stands inactive: 1.11.
Same read-out and setting: under SFPSTYRFERG [INPPL1_Y661_P659S_YF] stands inactive: 0.803; under FPCSVYMPDEW [INSR_Y1011_V1012M], inactive: 0.915; under EFNLMYHGTKE [IRF6_Y97_D98H], inactive: 0.718.
Same read-out and setting: the figure for KQRKEYMHRRQ [IQGAP2_Y710] is inactive: 0.313; for MTRDIYETDFF [INSR_Y1185_YF] it is inactive: 1.06.
As to VGTTAYMAPEA [IRAK4_Y354], the enrichment score was inactive: 0.855.
On to KLFFHYNPKLC [INSR_Y457], for which the enrichment score is inactive: 1.45.
On the same count and under the same terms, under KQRKEYMHRWQ [IQGAP2_Y710_R714W] stands active: 3.78; under KLFFHYDPKLC [INSR_Y457_N458D], inactive: 1.11; under DISEPYEVYRI [IRF8_Y107_K108E], inactive: 0.585.
Same read-out and setting: the figure for VGTTAYVAPEA [IRAK4_Y354_M355V] is inactive: 0.817; for EKFVPYFDLFM [IPO5_Y530_YF] it is inactive: 1.92.
On the same count and under the same terms, the figure for LLFRVYGLESL [INSR_Y94] is inactive: 0.671; for IFETDYFQKGG [INSR_Y1189_R1191Q_YF] it is inactive: 0.934.
On to SFVMVYEGNAR [INSR_Y1038_G1035V], for which the enrichment score was inactive: 0.917.
Take PLGPLYASSNP [INSR_Y992]: the enrichment score was inactive: 0.652.

For another assay, the target named is SHP2 N-SH2 domain L43F. The assay is described as above. To be noted: peptide library: pTyr-Var.
In the case of NLFIEYPTGSG [IRF2BPL_Y423_K418N], the enrichment score was inactive: 0.895.
Turning to IYETDYYQKGG [INSR_Y1189_R1191Q], the enrichment score is inactive: 0.924.
Same read-out and setting: the figure for FNNPAYFVLEG [INPPL1_Y986_YF] is inactive: 1.27; for SFPSTYRFERG [INPPL1_Y661_P659S_YF] it is inactive: 1.02.
With FPCSVYMPDEW [INSR_Y1011_V1012M], the enrichment score is inactive: 0.994.
As for EFNLMYHGTKE [IRF6_Y97_D98H], the enrichment score is inactive: 0.757.
As to KQRKEYMHRRQ [IQGAP2_Y710], the enrichment score was inactive: 0.346.
The same measure, in the same setting: under MTRDIYETDFF [INSR_Y1185_YF] stands inactive: 1.02; under VGTTAYMAPEA [IRAK4_Y354], inactive: 0.821; under KLFFHYNPKLC [INSR_Y457], inactive: 1.2.
For KQRKEYMHRWQ [IQGAP2_Y710_R714W], the enrichment score was active: 3.58.
Same read-out and setting: the figure for KLFFHYDPKLC [INSR_Y457_N458D] is inactive: 0.712; for DISEPYEVYRI [IRF8_Y107_K108E] it is inactive: 0.651; for VGTTAYVAPEA [IRAK4_Y354_M355V] it is inactive: 0.861.
In the case of EKFVPYFDLFM [IPO5_Y530_YF], the enrichment score is inactive: 1.75.
For the molecule LLFRVYGLESL [INSR_Y94], the enrichment score is inactive: 0.85.
The same measure, in the same setting: under IFETDYFQKGG [INSR_Y1189_R1191Q_YF] stands inactive: 1.09; under SFVMVYEGNAR [INSR_Y1038_G1035V], inactive: 1.22; under PLGPLYASSNP [INSR_Y992], inactive: 0.86.

Another assay deals with SHP2 N-SH2 domain T42A. The description is as above. To be noted: peptide library: pTyr-Var.
In the case of NLFIEYPTGSG [IRF2BPL_Y423_K418N], the enrichment score was inactive: 0.744.
For IYETDYYQKGG [INSR_Y1189_R1191Q], the enrichment score is inactive: 0.979.
Still for that read-out and setting: the figure for FNNPAYFVLEG [INPPL1_Y986_YF] is inactive: 0.99.
With SFPSTYRFERG [INPPL1_Y661_P659S_YF], the enrichment score was inactive: 0.815.
For the molecule FPCSVYMPDEW [INSR_Y1011_V1012M], the enrichment score is inactive: 0.865.
With EFNLMYHGTKE [IRF6_Y97_D98H], the enrichment score is inactive: 0.806.
KQRKEYMHRRQ [IQGAP2_Y710]: the enrichment score is inactive: 0.404.
Still for that read-out and setting: the figure for MTRDIYETDFF [INSR_Y1185_YF] is inactive: 0.734.
In the case of VGTTAYMAPEA [IRAK4_Y354], the enrichment score is inactive: 0.728.
With KLFFHYNPKLC [INSR_Y457], the enrichment score was inactive: 1.39.
Same read-out and setting: the figure for KQRKEYMHRWQ [IQGAP2_Y710_R714W] is active: 3.45.
The same measure, in the same setting: under KLFFHYDPKLC [INSR_Y457_N458D] stands inactive: 1.1.
On the same count and under the same terms, under DISEPYEVYRI [IRF8_Y107_K108E] stands inactive: 0.605; under VGTTAYVAPEA [IRAK4_Y354_M355V], inactive: 0.856.
Regarding EKFVPYFDLFM [IPO5_Y530_YF], the enrichment score was inactive: 2.85.
As for LLFRVYGLESL [INSR_Y94], the enrichment score was inactive: 0.884.
As for IFETDYFQKGG [INSR_Y1189_R1191Q_YF], the enrichment score was inactive: 0.717.
With SFVMVYEGNAR [INSR_Y1038_G1035V], the enrichment score is inactive: 1.04.
For PLGPLYASSNP [INSR_Y992], the enrichment score is inactive: 0.735.

Another assay concerns the target SHP2 N-SH2 domain T52S. The assay is described as above. Conditions: peptide library: pTyr-Var.
With NLFIEYPTGSG [IRF2BPL_Y423_K418N], the enrichment score was inactive: 0.879.
IYETDYYQKGG [INSR_Y1189_R1191Q]: the enrichment score is inactive: 0.922.
Regarding FNNPAYFVLEG [INPPL1_Y986_YF], the enrichment score is inactive: 0.964.
Still for that read-out and setting: the figure for SFPSTYRFERG [INPPL1_Y661_P659S_YF] is inactive: 0.977.
FPCSVYMPDEW [INSR_Y1011_V1012M]: the enrichment score is inactive: 0.89.
As for EFNLMYHGTKE [IRF6_Y97_D98H], the enrichment score is inactive: 0.694.
Still for that read-out and setting: the figure for KQRKEYMHRRQ [IQGAP2_Y710] is inactive: 0.372; for MTRDIYETDFF [INSR_Y1185_YF] it is inactive: 0.873.
Consider VGTTAYMAPEA [IRAK4_Y354], for which the enrichment score is inactive: 0.719.
On the same count and under the same terms, the figure for KLFFHYNPKLC [INSR_Y457] is inactive: 1.05.
Still for that read-out and setting: the figure for KQRKEYMHRWQ [IQGAP2_Y710_R714W] is active: 4.21; for KLFFHYDPKLC [INSR_Y457_N458D] it is inactive: 0.69.
DISEPYEVYRI [IRF8_Y107_K108E]: the enrichment score was inactive: 0.749.
Consider VGTTAYVAPEA [IRAK4_Y354_M355V], for which the enrichment score was inactive: 0.812.
Consider EKFVPYFDLFM [IPO5_Y530_YF], for which the enrichment score is inactive: 1.44.
LLFRVYGLESL [INSR_Y94]: the enrichment score is inactive: 0.374.
Regarding IFETDYFQKGG [INSR_Y1189_R1191Q_YF], the enrichment score is inactive: 0.954.
As for SFVMVYEGNAR [INSR_Y1038_G1035V], the enrichment score is inactive: 1.47.
The same measure, in the same setting: under PLGPLYASSNP [INSR_Y992] stands inactive: 0.912.

The next assay has as its target SHP2 N-SH2 domain wild-type. The assay is described as above. To be noted: peptide library: pTyr-Var.
For NLFIEYPTGSG [IRF2BPL_Y423_K418N], the enrichment score is inactive: 1.02.
The same measure, in the same setting: the figure for IYETDYYQKGG [INSR_Y1189_R1191Q] is inactive: 0.933.
The same measure, in the same setting: under FNNPAYFVLEG [INPPL1_Y986_YF] stands inactive: 0.96; under SFPSTYRFERG [INPPL1_Y661_P659S_YF], inactive: 1.06.
Still for that read-out and setting: under FPCSVYMPDEW [INSR_Y1011_V1012M] stands inactive: 0.925.
In the case of EFNLMYHGTKE [IRF6_Y97_D98H], the enrichment score was inactive: 0.679.
Still for that read-out and setting: the figure for KQRKEYMHRRQ [IQGAP2_Y710] is inactive: 0.383; for MTRDIYETDFF [INSR_Y1185_YF] it is inactive: 1.09.
On to VGTTAYMAPEA [IRAK4_Y354], for which the enrichment score was inactive: 0.683.
For the molecule KLFFHYNPKLC [INSR_Y457], the enrichment score was inactive: 1.15.
Regarding KQRKEYMHRWQ [IQGAP2_Y710_R714W], the enrichment score was active: 3.71.
For KLFFHYDPKLC [INSR_Y457_N458D], the enrichment score is inactive: 1.14.
Still for that read-out and setting: the figure for DISEPYEVYRI [IRF8_Y107_K108E] is inactive: 0.506; for VGTTAYVAPEA [IRAK4_Y354_M355V] it is inactive: 0.976.
Turning to EKFVPYFDLFM [IPO5_Y530_YF], the enrichment score is inactive: 2.38.
LLFRVYGLESL [INSR_Y94]: the enrichment score was inactive: 0.752.
As for IFETDYFQKGG [INSR_Y1189_R1191Q_YF], the enrichment score was inactive: 0.931.
Still for that read-out and setting: the figure for SFVMVYEGNAR [INSR_Y1038_G1035V] is inactive: 0.866; for PLGPLYASSNP [INSR_Y992] it is inactive: 0.929.
